In patent US20220048951A1 one finds IC50 [nM], cell viability 24 h, Daudi (CD20 positive) and IC50 [nM], membrane integrity 4 h, Daudi (CD20 positive) data, which are given here for two molecules.

The assay addresses T1, CD20 on CD20 positive lymphoma cells (Daudi, Raji) (human) (UniProt P11836).
T1 sequence: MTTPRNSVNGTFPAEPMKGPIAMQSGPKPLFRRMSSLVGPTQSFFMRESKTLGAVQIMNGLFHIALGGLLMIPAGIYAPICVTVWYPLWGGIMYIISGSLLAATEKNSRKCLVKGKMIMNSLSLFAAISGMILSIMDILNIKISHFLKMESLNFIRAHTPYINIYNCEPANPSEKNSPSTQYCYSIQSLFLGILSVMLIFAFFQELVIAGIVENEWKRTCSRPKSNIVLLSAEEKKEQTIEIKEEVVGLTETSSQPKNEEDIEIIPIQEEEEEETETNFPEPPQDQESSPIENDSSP
The assay is described as follows: cell-based or functional assay.

B1: Phor18-VL-scFv-Fc (E. coli, single chain) (Fc fusion)
chain: KFAKFAKKFAKFAKKFAKGSDIQMTQSPSSLSASVGDRVTITCRASSSVSYIHWYQQKPGKAPKLLIYATSNLASGVPSRFSGSRSGTDFTLTISSLQPEDFATYYCQQWTSNPPTFGQGTKVEIKGGGGSEVQLVESGGGLVQPGGSLRLSCAASGYTFTSYNMHWVRQAPGKGLEWVAAIYPGNGDTSYNQKFKGRFTISADTSKNTAYLQMNSLRAEDTAVYYCSRSTYYGGDWYFDVWGQGTLVTVSSV[human IgG1 Fc not listed]
For the molecule B1, the IC50 [nM], cell viability 24 h, Daudi (CD20 positive) was determined as 21.8 nM and the IC50 [nM], membrane integrity 4 h, Daudi (CD20 positive) is 277 nM.

B2: scFv-Fc-CH3-Phor18 (E. coli, single chain) (Fc fusion)
chain: DIQMTQSPSSLSASVGDRVTITCRASSSVSYIHWYQQKPGKAPKLLIYATSNLASGVPSRFSGSRSGTDFTLTISSLQPEDFATYYCQQWTSNPPTFGQGTKVEIKGGGGSEVQLVESGGGLVQPGGSLRLSCAASGYTFTSYNMHWVRQAPGKGLEWVAAIYPGNGDTSYNQKFKGRFTISADTSKNTAYLQMNSLRAEDTAVYYCSRSTYYGGDWYFDVWGQGTLVTVSSV[human IgG1 Fc not listed]GSKFAKFAKKFAKFAKKFAK
B2: the IC50 [nM], cell viability 24 h, Daudi (CD20 positive) came out at 423 nM and the IC50 [nM], membrane integrity 4 h, Daudi (CD20 positive) was 2560 nM.
